From paper PMC4336329 (PLoS ONE, 2015)
In all, about 310,000 compounds went through this assay and about 2,200 (0.71%) showed an effect of 50% or more. The effect is printed as a negative number. The list shows a part of the results.

What follows are molecules tested against human ether-à-go-go-related gene (hERG) potassium channel (human, UniProt Q12809) (assay: primary screen, population patch clamp on CHO cells stably expressing hERG).
human ether-à-go-go-related gene (hERG) potassium channel, sequence (Q12809 whole entry, looked up): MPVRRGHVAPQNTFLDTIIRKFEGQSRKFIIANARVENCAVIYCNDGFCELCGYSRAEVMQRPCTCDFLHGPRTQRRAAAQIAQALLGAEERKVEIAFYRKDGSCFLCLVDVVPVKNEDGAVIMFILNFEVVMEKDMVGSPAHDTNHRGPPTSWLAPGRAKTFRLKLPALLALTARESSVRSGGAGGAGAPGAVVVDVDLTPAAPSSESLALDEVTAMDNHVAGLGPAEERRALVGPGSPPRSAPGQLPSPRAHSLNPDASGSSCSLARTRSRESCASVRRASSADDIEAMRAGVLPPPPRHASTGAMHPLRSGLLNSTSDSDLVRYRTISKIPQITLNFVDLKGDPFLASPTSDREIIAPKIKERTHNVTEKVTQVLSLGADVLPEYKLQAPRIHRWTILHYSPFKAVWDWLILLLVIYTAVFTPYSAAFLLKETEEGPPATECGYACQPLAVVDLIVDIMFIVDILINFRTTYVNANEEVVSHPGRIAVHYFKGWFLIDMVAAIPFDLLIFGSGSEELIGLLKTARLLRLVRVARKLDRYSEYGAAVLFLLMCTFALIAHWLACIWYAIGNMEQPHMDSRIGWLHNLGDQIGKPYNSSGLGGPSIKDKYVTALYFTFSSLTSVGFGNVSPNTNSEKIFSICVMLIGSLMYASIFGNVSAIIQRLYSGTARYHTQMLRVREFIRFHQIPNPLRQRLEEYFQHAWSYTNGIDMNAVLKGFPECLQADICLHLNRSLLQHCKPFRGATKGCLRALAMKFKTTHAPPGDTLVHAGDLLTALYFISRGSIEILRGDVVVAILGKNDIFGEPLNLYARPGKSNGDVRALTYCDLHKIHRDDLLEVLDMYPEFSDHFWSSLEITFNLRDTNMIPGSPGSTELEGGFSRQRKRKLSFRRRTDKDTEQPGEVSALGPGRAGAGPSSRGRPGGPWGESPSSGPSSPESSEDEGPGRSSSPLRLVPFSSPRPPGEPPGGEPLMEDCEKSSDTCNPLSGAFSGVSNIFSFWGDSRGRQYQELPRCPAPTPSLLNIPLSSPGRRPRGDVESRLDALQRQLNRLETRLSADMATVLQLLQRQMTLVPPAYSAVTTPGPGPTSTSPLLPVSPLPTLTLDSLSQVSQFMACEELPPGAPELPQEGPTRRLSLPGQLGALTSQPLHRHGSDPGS

Compound | hERG current change (%, negative = inhibition) at 1uM [%]
COc1cc(N2CCOCC2)ccc1C=C1C(=O)NC(=O)NC1=O | 15.4
CCOc1ccccc1NC(=O)CSc1nc(=O)n(CCCN2CCOCC2)c2c1CCCC2 | 7.97
COc1cccc(NC(=O)c2sc(NC(=O)c3ccncc3)nc2C)c1 | 9.78
O=C(CNC(=O)c1ccccc1Br)N/N=C/c1ccc(O)cc1 | 4.02
Cc1ccc(NS(=O)(=O)c2ccc(C(=O)N3CCCC(C(F)(F)F)C3)cc2)cc1 (stereo not shown) | 3.73
CC1CN(c2ccc([N+](=O)[O-])cc2Cl)CCN1.Cl (stereo not shown) | -3.16
CN(Cc1ccccc1)C(=O)c1ccc(NC(=O)Cc2cccc(NC(=O)C3CCN(C(=O)C4CC4)CC3)c2)cc1 | 5.63
CCN(C1CCCCC1)S(=O)(=O)c1ccc(S(=O)(=O)NCCc2ccncc2)cc1 | 14.1
CCOC(=O)Cc1csc(N/N=C\c2ccccc2OC)n1 | 9.92
COC(=O)CSc1nc2ccc(NC(=O)c3ccccc3C(=O)N3CCOCC3)cc2s1 | 11.6
COc1ccc(OC(C)C(=O)Nc2cccnc2)cc1 (stereo not shown) | 9.01
O=C(COC(=O)/C=C/c1ccc(S(=O)(=O)N2CCc3ccccc32)cc1)NC1CCS(=O)(=O)C1 (stereo not shown) | 9.59
COc1ccc(-c2cccc(NS(=O)(=O)c3cc([N+](=O)[O-])ccc3Cl)c2)nn1 | 12.7
O=C(c1ccc(S(=O)(=O)Nc2ccccc2)cc1)N1CCC1 | 8.86
CCN(CC)c1nc2ccccc2n2cnnc12 | -5.28
CSc1ncc(F)c(N(CCO)CCO)n1 | 9.71
Cc1cc2cc(CNC(=O)C3CC3)ccc2n1C | 1.25
O=C(OCCOc1ccccc1)c1n[nH]c2ccccc12 | 8.16
CC1CCN(CCCNC(=O)c2cn(C)c3ccc(S(=O)(=O)N4CCCC4)cc3c2=O)CC1 | 10.7
CCC(CO)n1c(SCc2cc([N+](=O)[O-])cc3c2OCOC3)nc2ccccc2c1=O (stereo not shown) | 11
CCCCNC(=S)Nc1cc(S(=O)(=O)N2CCCCC2)ccc1C | 9.26
CC(OC(=O)COc1ccccc1)C(=O)NC1CCCC1 (stereo not shown) | 11.7
CCCCNc1c(N2CCN(C(=O)OCC)CC2)c(=O)c1=O | 6.16
CCOC(=O)N1CCC(NC(=O)C(NS(=O)(=O)c2cccc3nsnc23)c2ccccc2)CC1 (stereo not shown) | 0.671
N#Cc1c(N)nc(SCc2ccccn2)c(C#N)c1-c1cccs1 | 9.69
COc1cc(CNC2CCCC2)cc(Cl)c1OCc1ccccc1Cl.Cl | 3.43
COc1ccc(NC(=S)N(Cc2ccc(N(C)C)cc2)Cc2ccco2)cc1 | -6.36
COc1cc(OC)cc(-c2nnc(SCC(=O)Nc3ccc(C(=O)O)cc3)s2)c1 | 18

Compound | hERG current change (%, negative = inhibition) at 1uM [%]
Clc1ccc(-c2c[n+](Cc3ccc(Br)cc3)c3n2CCCCC3)cc1.[Br-] | -29
CCn1nccc1C(=O)Nc1cc(Cl)ccc1Cl | 0.897
COC(=O)c1ccccc1NC(=O)c1ccc2c(c1)C(=O)N(Cc1ccco1)C2=O | -12.4
Cc1cc(OCC(=O)N[C@@H](Cc2c[nH]c3ccccc23)C(=O)O)c2c(C)c(C)c(=O)oc2c1 | -5.73
CCN(C(=O)COC(=O)c1cccc(NS(=O)(=O)c2ccc(F)c(F)c2)c1)C1CCS(=O)(=O)C1 (stereo not shown) | 14.3
CC(C(=O)Oc1ccc2c(c1)OCO2)N1C(=O)c2ccccc2C1=O (stereo not shown) | -1.93
COc1ccc(CCNC(=O)C(=O)c2c(C)[nH]c3ccccc23)cc1 | 11
COC(=O)C1=C(C)N(C(C)c2ccccc2)C(=O)/C1=C\c1ccco1 (stereo not shown) | 11.4
CCCc1nc(-c2cc3ccc(C)cc3[nH]c2=O)no1 | 8.99
CCC1CCCCN1CCCNC(=O)CCC(=O)N1CC(C)Oc2ccccc21 (stereo not shown) | 7.01
O=c1[nH]nc(SCc2nnc(-c3ccc([N+](=O)[O-])cc3)o2)n1C1CCCCC1 | 8.98
O=C(CCS(=O)(=O)c1ccc(F)cc1)Nc1nc(-c2ccncc2)cs1 | 16.6
CCC(C)(C(=O)Nc1ccccc1C)N(C(=O)CNC(C)=O)c1ccc(C)cc1 (stereo not shown) | 11.5
O=C(c1cccs1)c1ccc(-c2cccs2)s1 | 1.41
CC(=O)C1C(c2ccccc2)c2c(noc2C)CC1(C)O (stereo not shown) | 11.1
CCOC(=O)CC(NC(=O)Cn1nnc(-c2ccccc2C)n1)c1ccc(OC)cc1 (stereo not shown) | -0.402
CCCCc1nc(S(=O)(=O)c2ccc(Cl)cc2)c(N2CCOCC2)o1 | -31.1
Cc1cc(-c2csc(N)n2)c(C)n1CCc1ccccc1.Cl | 11.6
COc1cc2c(cc1NCc1ccc3c(c1)OCO3)oc1ccccc12 | 18
Nc1nc(SCc2nc3scc(-c4ccccc4)c3c(=O)[nH]2)n[nH]1 | 16.7
Cc1ccc2c(c1)C(=O)C(=O)N2CCCOc1ccccc1 | 6.2
O=c1cc(CSc2ccccn2)c2ccccc2[nH]1 | 1.13
CCOC(=O)c1cnn(-c2nc(-c3ccccc3)cs2)c1C(F)(F)F | 4.82
O=C(NC1CC1)c1ccc(N2CCCCC2)c([N+](=O)[O-])c1 | -12.3
Cc1ccc(NC(=O)NC(=O)COc2ccc(Cl)cc2Cl)c(C)c1 | 9.4
Cc1ccc(C)c(S(=O)(=O)N2CCCOC2CNC(=O)C(=O)NCc2ccc3c(c2)OCO3)c1 (stereo not shown) | 9.55
CC(C)(C)c1ccc(C(=O)NC(CC(=O)O)c2ccc(OC3CCCC3)cc2)cc1 (stereo not shown) | 17.4
